The record followed here is PubChem BioAssay AID1347434 (National Center for Advancing Translational Sciences (NCATS), 2020).

SMILES strings stand for the structures. About 30 (2%) of roughly 1,200 compounds were called active. Roughly 23% stayed inconclusive and do not appear here. Calls follow the shape of the dose curve; as a rule, active = well fitted inhibition curve with a large enough effect; inconclusive = small, poorly fitted or top-dose-only effect; inactive = flat fitted curve, though single readings scatter. Some of the results follow.
% is scaled to controls: 0 for no effect and ±100 for the full control effect.

The target in the experiment is Single-stranded DNA cytosine deaminase (Homo sapiens) (UniProt Q9GZX7). In words: Confirmatory qHTS assay for inhibitors of Activation Induced Cytidine Deaminase (AID): AID signals. To be noted: recombinant AID, FRET deamination/UDG coupled fluorescence, 4 h; series mostly up to 115 µM; activity, negative = inhibition: at the top concentration. In outline: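 Read 1 (AID) was measured at 540 ex/590 em after a 30 min NaOH step. The reaction was AID (1 uM, 4/3x stock) with UDG, compound at final 7.32 nM - 114 uM for 10 min, then DJC20/DJC23 substrate for 4 hr at room temperature. A UDG read at 560/665 serves as counterscreen.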
Chain of UniProt Q9GZX7 (Q9GZX7 whole entry, looked up): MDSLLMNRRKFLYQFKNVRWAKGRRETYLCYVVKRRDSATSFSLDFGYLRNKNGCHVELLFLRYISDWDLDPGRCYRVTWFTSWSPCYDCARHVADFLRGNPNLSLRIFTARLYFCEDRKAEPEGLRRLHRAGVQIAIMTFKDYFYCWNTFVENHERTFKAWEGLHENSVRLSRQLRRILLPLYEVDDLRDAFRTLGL
In general terms: In qHTS, concentration-response curves come from the screen itself.
Regarding `Cc1cccc(N2CCN(C(=O)c3ccc4c(c3)c(C)c(C)n4C)CC2C)c1` (stereo not given), the “activity, negative = inhibition” value was inactive: -17.3%.

As to `COc1ccccc1CN1CCC(CNC(=O)c2cnn(-c3ccc(C)c(C)c3)c2C2CCN(C(=O)OC(C)(C)C)CC2)CC1`, the “activity, negative = inhibition” value is inactive: -12.1%.

Take `CCc1ccc2oc(-c3cc(NC(=O)c4cc([N+](=O)[O-])ccc4N4CCOCC4)ccc3Cl)nc2c1`: the “activity, negative = inhibition” value was inactive: -4.08%.

For the compound `COc1ccc(-c2nc3c(c(SCC(=O)N4CCCCC4)n2)Cc2c(CO)cnc(C)c2O3)cc1`, the “activity, negative = inhibition” value is inactive: -0.171%.

On to `Cc1ccc(C)c(N2CCN(C(=O)c3cc(S(=O)(=O)N4CCCCCC4)cn3C)CC2)c1`, for which the “activity, negative = inhibition” value is inactive: -10.1%.

Regarding `O=C(NCc1cccs1)c1ccc(Cn2c(SCc3ccc(F)cc3)nc3cccnc32)cc1`, the “activity, negative = inhibition” value is inactive: -4.91%.

On to `CC1CCCCN1C(=O)CSc1nc2ccccc2nc1Cc1ccccc1` (stereo not given), for which the “activity, negative = inhibition” value is inactive: -15.5%.

As to `CCCN(CCC)CCCNC(=O)c1cc2c(-c3ccc(Cl)cc3)nn(C)c2s1`, the “activity, negative = inhibition” value was inactive: -20.4%.

As for `COc1ccccc1Nc1nn2c(=O)c3ccc(C(=O)N4CCC(C)CC4)cc3nc2s1`, the “activity, negative = inhibition” value is inactive: -12.2%.

As to `CCN(C(=O)CCc1nc(-c2ccc(C)cc2)no1)c1cc(C)ccc1C`, the “activity, negative = inhibition” value was inactive: -18.2%.

`CCCCOc1ccc(C2=NC(c3ccncc3)=Nc3ccc(Br)cc3N2)cc1`: the “activity, negative = inhibition” value was inactive: 2.1%.

For the compound `CCn1cc(S(=O)(=O)c2ccc(OC)cc2)c(=O)c2cc(F)c(N3CCC(C)CC3)cc21`, the “activity, negative = inhibition” value was inactive: -25.9%.

With `Cc1ccc(CN(Cc2ccco2)C(=O)COc2c(C)cc(C)cc2C)cc1`, the “activity, negative = inhibition” value is inactive: -9.83%.

Turning to `Cc1ccccc1CN1CCC(CNc2ncnc3onc(-c4ccc(Cl)cc4)c23)CC1`, the “activity, negative = inhibition” value was inactive: 2.45%.

In the case of `CCCn1cc(S(=O)(=O)c2ccccc2)c(=O)c2cc(F)c(N3CCCCC3)cc21`, the “activity, negative = inhibition” value is inactive: -12.4%.

In the case of `Cc1ccc(Cc2c(C)nc3nc(SCC(=O)NC(C)c4ccccc4)nn3c2C)cc1` (stereo not given), the “activity, negative = inhibition” value was inactive: -6.04%.

Consider `COc1ccccc1NC(=O)CSc1nnc2c3ccccc3n(C(C)C)c2n1`, for which the “activity, negative = inhibition” value is inactive: -8.08%.

Consider `COc1ccccc1C(=O)NCCc1csc(-c2ccc(C(F)(F)F)cc2)n1`, for which the “activity, negative = inhibition” value is inactive: -9.97%.

In the case of `CN(C)S(=O)(=O)N(CC(=O)NCCSc1ccc(Cl)cc1)c1ccccc1`, the “activity, negative = inhibition” value is inactive: -5.54%.

Turning to `Cn1c2ccccc2c2c(C(=O)N3CCN(c4cccc(C(F)(F)F)c4)CC3)cn(C3CCCCC3)c(=O)c21`, the “activity, negative = inhibition” value was inactive: -7.51%.

As for `COc1cc(NC(=O)Cn2cc(S(=O)(=O)N3CCC(C)CC3)c3ccccc3c2=O)cc(OC)c1OC`, the “activity, negative = inhibition” value is inactive: -10%.

With `Cc1ccc(C(=O)c2cn(CC(=O)Nc3ccc4c(c3)OCCO4)c3nc(C)ccc3c2=O)cc1`, the “activity, negative = inhibition” value was inactive: -25.8%.

Turning to `CCc1ccc(OCC2c3cc(OC)c(OC)cc3CCN2C(=O)Cc2ccc(OC)c(OC)c2)cc1` (stereo not given), the “activity, negative = inhibition” value is inactive: -16.6%.

Take `Cc1cccc(N2CCN(C(=O)c3c4c(nc5ccccc35)C(=O)N(C3CCCCC3)C4)CC2)c1C`: the “activity, negative = inhibition” value was inactive: -26.2%.

As for `Cc1ccc(-n2ncc(C(=O)N3CCN(Cc4ccccc4)CC3)c2C2CCN(C(=O)OC(C)(C)C)CC2)c(C)c1`, the “activity, negative = inhibition” value was inactive: -9.26%.
